The other results are listed elsewhere or left out. Many values rest on one well or one pass, so single values are uncertain.
Columns and labels:
Test in all cases: cell count relative to DMSO control; melanoma cells; higher = more viable cells
Conditions in all cases: library dose: low library concentration; 72 h
MZ2-MEL = tested on: MZ2-MEL
MeWo = tested on: MeWo
RPMI7951 = tested on: RPMI7951
RVH-421 = tested on: RVH-421
SkMel28 = tested on: SkMel28
SkMel2 = tested on: SkMel2
SkMel30 = tested on: SkMel30
SkMel5 = tested on: SkMel5
UACC257 = tested on: UACC257
UACC62 = tested on: UACC62
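Also: cell number obtained by counting DAPI-stained nuclei in high-throughput microscope images with image analysis software, screen run in 1,536-well plates.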

SMILES | cell count (MZ2-MEL) [%] | cell count (MeWo) [%] | cell count (RPMI7951) [%] | cell count (RVH-421) [%] | cell count (SkMel28) [%] | cell count (SkMel2) [%] | cell count (SkMel30) [%] | cell count (SkMel5) [%] | cell count (UACC257) [%] | cell count (UACC62) [%]
Cn1nnc2c(C(N)=O)ncn2c1=O [temozolomide] + COc1cc2c(Oc3ccc4[nH]c(C)cc4c3F)ncnc2cc1OCCCN1CCCC1 [cediranib] (first compound 2 µM, partner dose 0.4 µM) | 91.3 | 103 | 101 | 74.2 | 72.7 | 106 | 95.6 | 93.3 | 103 | 62.7
O=C(O)[C@@H]1[O][Sb](=[O])([O][Sb]2(=[O])[O][C@H]([C@H](O)CO)[C@H](O)[C@H](C(=O)O)[O]2)[O][C@H]([C@H](O)CO)[C@@H]1O (some centres not stated) [stibogluconate] + CN(NC(=O)CC(=O)NN(C)C(=S)c1ccccc1)C(=S)c1ccccc1 [STA4783] (first compound 2 µM, partner dose 0.006 µM) | 108 | 105 | 91.2 | 99.2 | 86.6 | 106 | 101 | 106 | 95.9 | 102
O=C(O)[C@@H]1[O][Sb](=[O])([O][Sb]2(=[O])[O][C@H]([C@H](O)CO)[C@H](O)[C@H](C(=O)O)[O]2)[O][C@H]([C@H](O)CO)[C@@H]1O (some centres not stated) [stibogluconate] + O=C(O)c1ccc(-c2c[nH]c3ncc(-c4ccccc4)cc23)cc1C1CCCC1 [GSK650394] (first compound 2 µM, partner dose 0.16 µM) | 93.9 | 97 | 123 | 111 | 106 | 104 | 146 | 103 | 95.2 | 102
O=C(O)c1ccc2c(c1)nc(Nc1cccc(Cl)c1)c1ccncc12 + CN(NC(=O)CC(=O)NN(C)C(=S)c1ccccc1)C(=S)c1ccccc1 [STA4783] (first compound 0.4 µM, partner dose 0.006 µM) | 107 | 101 | 112 | 93 | 115 | 100 | 94.5 | 122 | 101 | 107
O=C(O)[C@@H]1[O][Sb](=[O])([O][Sb]2(=[O])[O][C@H]([C@H](O)CO)[C@H](O)[C@H](C(=O)O)[O]2)[O][C@H]([C@H](O)CO)[C@@H]1O (some centres not stated) [stibogluconate] + CS(=O)(=O)CCNCc1ccc(-c2ccc3ncnc(Nc4ccc(OCc5cccc(F)c5)c(Cl)c4)c3c2)o1 [lapatinib] (first compound 2 µM, partner dose 0.8 µM) | 95.8 | 96.5 | 98.2 | 108 | 92.9 | 100 | 111 | – | – | 86.1
O=C(O)c1ccc2c(c1)nc(Nc1cccc(Cl)c1)c1ccncc12 + Cn1nnc2c(C(N)=O)ncn2c1=O [temozolomide] (first compound 0.4 µM, partner dose 2 µM) | 91.6 | 87.4 | 101 | 126 | 92.7 | 94.8 | 101 | – | – | 77.6
O=C(Nc1cc(C(F)(F)F)cc(C(F)(F)F)c1)c1cc(Cl)ccc1O + Cn1c(=O)n(-c2ccc(C(C)(C)C#N)cc2)c2c3cc(-c4cnc5ccccc5c4)ccc3ncc21 [NVP-BEZ235] (first compound 0.016 µM, partner dose 0.004 µM) | 94.9 | 106 | 88.2 | 87.5 | 105 | 105 | 97.3 | – | – | 89
O=C(O)[C@@H]1[O][Sb](=[O])([O][Sb]2(=[O])[O][C@H]([C@H](O)CO)[C@H](O)[C@H](C(=O)O)[O]2)[O][C@H]([C@H](O)CO)[C@@H]1O (some centres not stated) [stibogluconate] + C=CCNC1=C2C[C@@H](C)C[C@H](OC)[C@H](O)[C@@H](C)/C=C(\C)[C@H](OC(N)=O)[C@@H](OC)/C=C\C=C(/C)C(=O)NC(=CC1=O)C2=O [Tanespimycin] (first compound 2 µM, partner dose 0.002 µM) | 111 | 106 | 127 | 150 | 101 | 115 | 122 | – | – | 113
O=C(O)c1ccc2c(c1)nc(Nc1cccc(Cl)c1)c1ccncc12 + C[C@]1(c2nc3c(C(N)=O)cccc3[nH]2)CCCN1 [Veliparib] (first compound 0.4 µM, partner dose 1.4 µM) | 84.9 | 90.4 | 76.7 | 110 | 94.5 | 91.6 | 89.3 | – | – | 86.2
O=C(O)[C@@H]1[O][Sb](=[O])([O][Sb]2(=[O])[O][C@H]([C@H](O)CO)[C@H](O)[C@H](C(=O)O)[O]2)[O][C@H]([C@H](O)CO)[C@@H]1O (some centres not stated) [stibogluconate] + CNC(=O)c1cc(Oc2ccc(NC(=O)Nc3ccc(Cl)c(C(F)(F)F)c3)cc2)ccn1 [sorafenib] (first compound 2 µM, partner dose 0.4 µM) | 79.1 | 99.6 | 92.7 | 92.2 | 114 | 99 | 103 | – | – | 99.6
O=C(O)[C@@H]1[O][Sb](=[O])([O][Sb]2(=[O])[O][C@H]([C@H](O)CO)[C@H](O)[C@H](C(=O)O)[O]2)[O][C@H]([C@H](O)CO)[C@@H]1O (some centres not stated) [stibogluconate] + Nc1cccc2c1CN(C1CCC(=O)NC1=O)C2=O [lenalidomide] (first compound 2 µM, partner dose 1 µM) | 107 | 86.6 | 89.7 | 106 | 105 | 88.4 | 94.2 | – | – | 96.2
O=C(Nc1cc(C(F)(F)F)cc(C(F)(F)F)c1)c1cc(Cl)ccc1O + C[C@@H](Oc1cc(-c2cnn(C3CCNCC3)c2)cnc1N)c1c(Cl)ccc(F)c1Cl [Crizotinib] (first compound 0.016 µM, partner dose 0.2 µM) | 111 | 93.1 | 134 | 115 | 95.4 | 110 | 99 | – | – | 93.3
O=C(O)c1ccc2c(c1)nc(Nc1cccc(Cl)c1)c1ccncc12 + C=CCNC1=C2C[C@@H](C)C[C@H](OC)[C@H](O)[C@@H](C)/C=C(\C)[C@H](OC(N)=O)[C@@H](OC)/C=C\C=C(/C)C(=O)NC(=CC1=O)C2=O [Tanespimycin] (first compound 0.4 µM, partner dose 0.002 µM) | 85.7 | 90.8 | 122 | 111 | 103 | 96.3 | 72.2 | – | – | 90.5
O=C(Nc1cc(C(F)(F)F)cc(C(F)(F)F)c1)c1cc(Cl)ccc1O + CS(=O)(=O)CCNCc1ccc(-c2ccc3ncnc(Nc4ccc(OCc5cccc(F)c5)c(Cl)c4)c3c2)o1 [lapatinib] (first compound 0.016 µM, partner dose 0.8 µM) | 88.1 | 108 | 111 | 99.1 | 88.8 | 101 | 102 | – | – | 143
O=C(Nc1cc(C(F)(F)F)cc(C(F)(F)F)c1)c1cc(Cl)ccc1O + CN(c1ncccc1CNc1nc(Nc2ccc3c(c2)CC(=O)N3)ncc1C(F)(F)F)S(C)(=O)=O [PF562271] (first compound 0.016 µM, partner dose 0.08 µM) | 95.9 | 106 | 85.2 | 90.8 | 81 | 90.5 | 95.1 | – | – | 103
O=C(O)[C@@H]1[O][Sb](=[O])([O][Sb]2(=[O])[O][C@H]([C@H](O)CO)[C@H](O)[C@H](C(=O)O)[O]2)[O][C@H]([C@H](O)CO)[C@@H]1O (some centres not stated) [stibogluconate] + CCCS(=O)(=O)Nc1ccc(F)c(C(=O)c2c[nH]c3ncc(Cl)cc23)c1F [PLX4720] (first compound 2 µM, partner dose 0.08 µM) | 78.5 | 101 | 108 | 81.9 | 101 | 96.5 | 119 | – | – | 67.4
O=C(O)c1ccc2c(c1)nc(Nc1cccc(Cl)c1)c1ccncc12 + Nc1cccc2c1CN(C1CCC(=O)NC1=O)C2=O [lenalidomide] (first compound 0.4 µM, partner dose 1 µM) | 88.7 | 81.8 | 83.2 | 90.8 | 91.5 | 93.7 | 80 | – | – | 102
O=C(Nc1cc(C(F)(F)F)cc(C(F)(F)F)c1)c1cc(Cl)ccc1O + O=C(O)[C@@H]1[O][Sb](=[O])([O][Sb]2(=[O])[O][C@H]([C@H](O)CO)[C@H](O)[C@H](C(=O)O)[O]2)[O][C@H]([C@H](O)CO)[C@@H]1O [stibogluconate] (first compound 0.016 µM, partner dose 2 µM) | 93.5 | 96.2 | 94.9 | 126 | 91 | 118 | 88.8 | – | – | 115
O=C(Nc1cc(C(F)(F)F)cc(C(F)(F)F)c1)c1cc(Cl)ccc1O + O=c1[nH]nc(Sc2ncc([N+](=O)[O-])s2)n1-c1ccc2c(c1)OCCO2 [BI78D3] (first compound 0.016 µM, partner dose 0.2 µM) | 104 | 103 | 85.4 | 120 | 109 | 74.9 | 94.3 | – | – | 108
O=C(Nc1cc(C(F)(F)F)cc(C(F)(F)F)c1)c1cc(Cl)ccc1O + O=C(O)c1ccc2c(c1)nc(Nc1cccc(Cl)c1)c1ccncc12 [CX4945] (first compound 0.016 µM, partner dose 0.4 µM) | 96.6 | 118 | 104 | 139 | 108 | 112 | 122 | – | – | 100
O=C(Nc1cc(C(F)(F)F)cc(C(F)(F)F)c1)c1cc(Cl)ccc1O + CCCS(=O)(=O)Nc1ccc(F)c(C(=O)c2c[nH]c3ncc(Cl)cc23)c1F [PLX4720] (first compound 0.016 µM, partner dose 0.08 µM) | 88.3 | 91 | 109 | 82.2 | 90.7 | 99.6 | 87.6 | – | – | 77.1
O=C(O)c1ccc2c(c1)nc(Nc1cccc(Cl)c1)c1ccncc12 + CC(=O)c1c(C)c2cnc(Nc3ccc(N4CCNCC4)cn3)nc2n(C2CCCC2)c1=O [palbociclib] (first compound 0.4 µM, partner dose 0.04 µM) | 84 | 76 | 82.7 | 99.4 | 77.2 | 87.7 | 74.4 | – | – | 72.6
O=C(Nc1cc(C(F)(F)F)cc(C(F)(F)F)c1)c1cc(Cl)ccc1O + NC1(c2ccc(-c3nc4ccn5c(=O)[nH]nc5c4cc3-c3ccccc3)cc2)CCC1 [MK2206] (first compound 0.016 µM, partner dose 0.4 µM) | 90.9 | 81.8 | 91.1 | 82.6 | 75.2 | 89.4 | 75.9 | – | – | 82.7

Source: the supplement of paper PMC4604168 (melanoma cell lines)
